Measured values taken from the supplement of paper PMC3724861.
Some of the results follow.

Test system: T1, Caupolican (Caup) homeodomain DNA-binding domain
T1 sequence: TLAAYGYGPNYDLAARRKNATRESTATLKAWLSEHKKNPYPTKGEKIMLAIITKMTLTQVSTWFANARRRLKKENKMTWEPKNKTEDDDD
Assay: PBM E-score (8-mer, recovered from the published 9-mer minima) (E-score (dimensionless, -0.5 to 0.5)); Drosophila protein; higher = stronger relative binding preference, active = 0.31 or more
In short: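 Caup's homeodomain DNA-binding domain (residues 214-303) was produced by in vitro transcription and translation and applied at 100 nM to custom-designed protein binding microarrays. Each value is an enrichment score giving relative binding preference for a short DNA word; higher means stronger. Published 9-mer scores were the minimum of their two constituent 8-mer scores, and the 8-mer values were recovered from those minima. A cutoff of 0.31 marks candidate binding sequences.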

Sequence	PBM E-score
GCAACTGA	inactive: 0.00625
GGGATAAA	inactive: 0.0523
ACACGCAG	inactive: 0.171
GCTCCTAA	inactive: -0.0665
AGGATCCC	inactive: -0.104
CCCTTGTC	inactive: 0.177
ATAGTGCC	inactive: -0.00807
GGAGATAA	inactive: -0.048
ACCTTACA	inactive: 0.165
CCGCACGC	inactive: -0.165
AAGAGATT	inactive: -0.0088
AAGCAATG	inactive: 0.0957
CCTTTAAA	inactive: -0.00481
ACGTAAAA	inactive: 0.103
GCGACGAA	inactive: -0.0973
AGAGCGCT	inactive: -0.145
ATCCGACG	inactive: -0.014
AACACATC	inactive: 0.202
GGTTACTA	inactive: 0.0657
ACACCCTA	≥ 0.193
AAGCAACC	inactive: 0.0108
CCGCAGCC	inactive: -0.25
AGTTGAAG	inactive: 0.0488
CACATAAC	inactive: 0.223
CCGTTCGC	inactive: -0.121

Sequence	PBM E-score
AACTGACG	inactive: -0.0576
GCCTGTCA	inactive: 0.0712
CCTCTGGA	inactive: -0.169
ACATAAGG	inactive: 0.2
ATCGGAAT	inactive: 0.11
CGCGCATA	inactive: -0.00482
AGGAACCG	inactive: -0.0874
CACGCGAC	inactive: -0.00214
GGACGGTA	inactive: -0.0402
AGGACGAT	≥ 0.0577
AATATACA	active: 0.322
GGTGGTGA	inactive: -0.0929
TAACCTTA	inactive: -0.0537
ATATGTCG	inactive: 0.302
ACGAACTC	inactive: -0.00652
GGCTGGAC	inactive: -0.225
CTCCTTAA	inactive: -0.152
AGTCACTG	inactive: -0.0797
ATTTAAAC	inactive: 0.233
CAGGACGG	inactive: -0.0596
ATCTCAAT	inactive: 0.0735
ACAGTGCT	inactive: 0.00703
ACGCTAAT	inactive: -0.0257
CCATTGCC	inactive: -0.226
CCGATGAG	inactive: -0.0517

Sequence	PBM E-score
CCGAATCC	inactive: -0.0248
GGTGTGTA	inactive: 0.258
GCTCAAGA	inactive: -0.183
CTGTATTC	inactive: 0.166
CTCCGCGA	inactive: -0.142
AGTCTCCA	inactive: -0.0921
CGCTCGCC	inactive: -0.18
ACATCCTC	inactive: 0.199
ACCTTGAC	inactive: 0.0207
ATCTCACC	inactive: -0.0234
TAATGGCA	inactive: 0.012
CTCTTGCA	inactive: -0.0814
TTGGCAAA	inactive: 0.0506
GGGTAGAC	inactive: -0.203
CGGCCAAG	inactive: -0.19
CTAGTCAA	inactive: 0.0597
ACCATGAT	inactive: 0.158
GAGGTGCA	inactive: -0.0697
AGAGAAAT	inactive: -0.0754
AAACGTGG	inactive: -0.051
AGATAATA	inactive: 0.0772
AAATGAAT	inactive: 0.128
CGTTCCTA	inactive: -0.0347
AAAGCGCC	inactive: -0.214
ATACTGCA	inactive: 0.0723

Sequence	PBM E-score
CAGATCAG	inactive: 0.112
CGCCACTC	inactive: -0.141
ACTGGATC	inactive: -0.0498
AGCCCTAA	inactive: -0.123
ACACACGA	inactive: 0.261
CTATCCAC	inactive: 0.0352
CGACTATA	inactive: 0.155
AGCCCATG	inactive: 0.00842
ATGGCATA	inactive: 0.0902
AGTCTCGG	inactive: -0.0794
CTCTTAAA	inactive: -0.0169
CTTATATC	inactive: 0.0842
AGATCCCC	inactive: -0.129
CCTAATCA	inactive: 0.0867
AGGATAGA	inactive: 0.00424
CCTTTGGA	inactive: -0.134
ATTACTTC	inactive: 0.0987
AGAAGAAT	inactive: -0.00222
AGTCCCCC	inactive: -0.323
AAGGCTCT	inactive: -0.194
CACTCACC	inactive: -0.132
ATGTCCCC	inactive: 0.159
CTGATGTA	inactive: 0.251
TCAATGCA	inactive: 0.0341
AGCGAATA	inactive: 0.0608

Sequence	PBM E-score
AAATGTGT	inactive: 0.219
AGACGTCT	inactive: -0.0527
GTGAATCA	inactive: 0.0399
AACTGTAC	inactive: 0.086
GTTATACA	active: 0.329
CCGGCCCC	inactive: -0.387
ACCAGGGT	inactive: -0.0515
CAGAATGG	inactive: -0.0461
GGGTAAAC	inactive: -0.0735
GAACAGTA	inactive: 0.173
ACCTTGAG	inactive: -0.00572
AGTCTTAG	inactive: -0.0522
CAGTTAGG	inactive: 0.00044
GGCACTTA	inactive: -0.0626
AAATAGGG	inactive: -0.0396
TACGCCGA	inactive: -0.102
GGTACCGA	inactive: -0.219
CACAGCTG	inactive: -0.0851
ATTGTACC	inactive: 0.2
CTCACGGC	inactive: -0.19
AACCATCG	inactive: 0.0347
AGCTCAGC	inactive: -0.115
AAGCGGGG	inactive: -0.172
CGTTTAAG	inactive: -0.119
ACGCAGGG	inactive: -0.113

Sequence	PBM E-score
CGCACTGC	inactive: -0.189
GAAAAACC	inactive: -0.008
AAATTTAC	inactive: 0.189
CTCGGTGC	inactive: -0.176
CTCCAACC	inactive: -0.171
CGGTTCTA	inactive: -0.118
ATGCCCAC	inactive: -0.0637
CAATTGCC	inactive: -0.0272
GCGTCGCC	inactive: -0.171
CACCGCCA	inactive: -0.113
GGATCACA	inactive: 0.0901
AGAGATGG	inactive: 0.0058
ACAAATCA	inactive: 0.198
GTGATAAC	inactive: 0.222
TAGAGAGA	inactive: -0.0282
CCCCAGGG	inactive: -0.297
ACCTCTGG	inactive: -0.178
CAGACCCC	inactive: -0.195
GAACGATA	inactive: 0.153
ACATGAGC	inactive: 0.198
AGTAACAG	inactive: 0.19
GACGAATC	inactive: 0.0709
AAGCCCGG	inactive: -0.163
AGATACCC	inactive: -0.00764
CGCTCATA	inactive: -0.0281

Sequence	PBM E-score
CAACCAAG	inactive: 0.0686
CGGGGGCA	≥ -0.24
CAAAAACG	inactive: -0.0135
CTCGAAAA	inactive: -0.0617
CAGACCTA	inactive: 0.00607
AACTCCGC	inactive: -0.15
CAACGACA	inactive: 0.26
CCTTAGTA	inactive: -0.0288
ATTCAAAG	inactive: 0.0118
CGTAACAG	inactive: 0.154
ACGGGGAG	inactive: -0.223
CGCGGGTC	inactive: -0.163
ATCATGCG	inactive: 0.0113
ATCCTACA	inactive: 0.137
CGCAAGGC	inactive: -0.208
CGGAGCAC	inactive: -0.114
GGGCGCAA	inactive: -0.179
GGATTATA	inactive: -0.00359
AACGTCAC	inactive: -0.00605
ATGATCCC	inactive: -0.0587
CACCGAAG	inactive: -0.0951
GATAAATA	inactive: 0.151
TGGTTGAA	inactive: 0.0746
GGCTAAAC	inactive: -0.0281
AGTTCGAG	inactive: 0.0211

Sequence	PBM E-score
AAATTCAC	inactive: 0.077
TGGCTAAA	inactive: 0.00869
GTAAAAAA	inactive: 0.0383
GTGCGCCA	inactive: -0.158
AAACGAAG	inactive: -0.00067
CGACGTTC	inactive: -0.203
GATCAAAA	inactive: 0.0532
GCGACTCC	inactive: -0.0913
TGTCATAA	active: 0.338
ATTCCTAA	inactive: 0.0573
CTCTGCAA	inactive: -0.0109
ATAAGGCC	inactive: -0.133
AGATGGGA	inactive: -0.0571
AGTCGATA	inactive: -0.00147
AGCAATGC	inactive: -0.00851
AGACAGAT	inactive: 0.15
AACACGGC	inactive: 0.166
AGTCTGGG	inactive: -0.147
AACTCTTG	inactive: 0.0747
ACTCTTCA	inactive: 0.0264
CGTCTCTC	inactive: -0.0963
ACCGGTTG	inactive: 0.00831
ACTCCCCC	inactive: -0.321
ACTTGAAC	inactive: 0.132
AAGTATAC	inactive: 0.227

Sequence	PBM E-score
GTGACGCA	inactive: -0.0129
ACGTCTGG	inactive: -0.0138
CACTAATG	inactive: 0.0246
ACCAGTCT	inactive: 0.00015
ATTATGTA	active: 0.327
ATCTTAGA	inactive: 0.0187
CACAGCGA	inactive: 0.0905
CCGTTACC	inactive: 0.0115
AGACGGAG	inactive: -0.147
ATACGCTA	inactive: 0.00481
GATATGAA	inactive: 0.0673
GTCGAATA	inactive: 0.0987
CATAATGG	inactive: 0.0184
CAGGAGGA	inactive: -0.0887
GAATGGCA	inactive: -0.0357
ATCTCGAC	inactive: -0.00436
CGCAGATA	inactive: -0.0365
ACGAGCGA	inactive: 0.0451
GACTACAA	inactive: 0.222
TCCGTACA	inactive: 0.124
ACAAAAAC	inactive: 0.117
